Measurements taken from PMC4336329 (PLoS ONE, 2015).
Out of some 310,000 compounds screened, about 2,200 (0.71%) showed an effect of 50% or more. The effect is printed as a negative number. This is one part of the list.

What follows are molecules tested against human ether-à-go-go-related gene (hERG) potassium channel (human, UniProt Q12809) (assay: primary screen, population patch clamp on CHO cells stably expressing hERG).
human ether-à-go-go-related gene (hERG) potassium channel, sequence (Q12809 whole entry, looked up): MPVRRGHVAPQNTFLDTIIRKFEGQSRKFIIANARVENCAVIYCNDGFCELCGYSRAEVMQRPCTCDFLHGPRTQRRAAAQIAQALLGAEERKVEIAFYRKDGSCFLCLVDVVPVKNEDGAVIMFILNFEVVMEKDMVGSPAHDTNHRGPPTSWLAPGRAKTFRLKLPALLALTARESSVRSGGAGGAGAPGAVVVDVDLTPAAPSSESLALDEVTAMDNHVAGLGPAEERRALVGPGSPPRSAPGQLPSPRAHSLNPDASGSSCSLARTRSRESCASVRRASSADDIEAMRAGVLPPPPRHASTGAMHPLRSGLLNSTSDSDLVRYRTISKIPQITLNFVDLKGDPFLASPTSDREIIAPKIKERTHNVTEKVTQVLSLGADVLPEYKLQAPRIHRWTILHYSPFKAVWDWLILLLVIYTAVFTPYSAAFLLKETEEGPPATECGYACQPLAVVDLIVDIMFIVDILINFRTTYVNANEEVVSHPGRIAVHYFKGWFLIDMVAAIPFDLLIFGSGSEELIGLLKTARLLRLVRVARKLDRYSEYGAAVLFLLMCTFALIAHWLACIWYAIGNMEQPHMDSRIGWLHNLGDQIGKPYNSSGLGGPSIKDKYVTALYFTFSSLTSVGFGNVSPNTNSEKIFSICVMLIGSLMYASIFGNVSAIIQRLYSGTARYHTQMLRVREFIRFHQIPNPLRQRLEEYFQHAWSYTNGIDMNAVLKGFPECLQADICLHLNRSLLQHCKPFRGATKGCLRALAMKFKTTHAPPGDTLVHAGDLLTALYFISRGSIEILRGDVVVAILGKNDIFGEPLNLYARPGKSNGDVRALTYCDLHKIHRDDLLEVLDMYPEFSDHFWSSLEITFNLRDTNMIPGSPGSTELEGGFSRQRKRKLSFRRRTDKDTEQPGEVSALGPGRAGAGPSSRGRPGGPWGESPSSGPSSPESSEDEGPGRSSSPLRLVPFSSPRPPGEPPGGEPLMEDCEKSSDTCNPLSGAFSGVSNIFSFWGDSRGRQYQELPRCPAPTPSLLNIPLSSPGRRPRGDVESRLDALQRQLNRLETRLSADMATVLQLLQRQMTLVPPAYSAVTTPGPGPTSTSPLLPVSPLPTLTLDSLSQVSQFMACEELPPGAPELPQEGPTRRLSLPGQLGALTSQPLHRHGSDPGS

Row | SMILES | hERG current change (%, negative = inhibition) at 1uM [%]
1 | Fc1ccc(CNCc2ccccc2Cl)cc1.O=C(O)C(=O)O | 8.73
2 | CCC(=O)c1c(O)n(C2CCCCCC2)c(=O)[nH]c1=O | 15.5
3 | O=C(N/N=C/c1cc(Cl)ccc1O)c1cccnc1 | 15.1
4 | Cc1ccccc1-n1c(=O)cc(NCC2CCCO2)[nH]c1=O (centres unmarked) | 8.86
5 | Brc1ccc(-c2csc3ncnc(-n4nnc5ccccc54)c23)cc1 | 3.56
6 | Cc1ccc(NC(=O)CSc2nnc(-c3cccnc3)s2)cc1 | -0.823
7 | COc1ccc(OCc2ccc(C(=O)O)cc2)cc1 | 13.5
8 | O=C(COc1ccc(Cl)cc1Cl)Nn1c(=S)[nH]c2ncccc2c1=O | 8.03
9 | CCN(CC)CCCNC(=O)CCC(=O)Nc1ccc2nc(N3CCC(C)CC3)cc(C)c2c1 | 8.55
10 | CCC(C)(C)n1nnnc1C(c1cc2ccc(OC)cc2[nH]c1=O)N1CCc2ccccc21 (centres unmarked) | 6.76
11 | Cc1ccc(S(=O)(=O)N2CCN(Cc3ccco3)CC2)c(C)c1 | 16.2
12 | CCCCCCCCCCOC(=O)Cn1c(COc2ccc(OC)cc2)[n+](C)c2ccccc21.[Cl-] | -70.9
13 | CCCCNC(=O)N(O)C1N(/N=C/c2ccccc2O)C(=S)SC1(C)C (centres unmarked) | 10.6
14 | Cc1sc2ncnc(N3CCC(C(=O)NNC(=O)COc4ccccc4Cl)CC3)c2c1C | -0.552
15 | COc1cccc(CNC(=O)CCC(=O)N2Cc3cccc(OC)c3Oc3ncccc32)c1OC | 10.7
16 | FC(F)(F)c1ccc(Cl)c(-n2c(-c3cc(C4CC4)[nH]n3)n[nH]c2=S)c1 | 14.4
17 | O=C(CCC(=O)N1CCN(c2ccc(Cl)c(Cl)c2)CC1)c1ccccc1 | 12.8
18 | O=S(=O)(c1ccccc1)N(Cc1ccc(Cl)cc1)c1ccncc1 | 8.2
19 | CCN1CCN(C(=O)c2c(-c3c(F)cccc3Cl)noc2C)CC1.Cl | 8.1

Row | SMILES | hERG current change (%, negative = inhibition) at 1uM [%]
20 | Fc1cc(F)c(F)c(SCCc2ccncc2)c1F | 12.6
21 | COc1ccc(CCn2c(C)nc3ccccc3c2=O)cc1OC | 13
22 | Cc1c(C(=O)NC2CCCCC2C)oc2ccccc12 (centres unmarked) | 11.2
23 | COc1ccc(S(=O)(=O)N2CCN(C)CC2)cc1C | 13.5
24 | C=CCNC(=O)NC(=O)COC(=O)CCCSc1nc2ccccc2[nH]1 | 11.5
25 | CCOc1ccc(S(=O)(=O)NCCC(=O)NC2=NCCS2)cc1 | 5.41
26 | COc1ccc2oc(=O)c(C(=O)N3CCN(c4ccccc4C)CC3)cc2c1 | 6.39
27 | COC(=O)c1ccc2c(c1)SC1=C(CCCC1=O)N2 | 11.9
28 | O=C(COC(=O)c1ccc(OC(F)F)cc1)Nc1cccc(S(=O)(=O)NC2=NCCC2)c1 | 9.21
29 | O=c1cc(CN2CCC3(CC2)OCCO3)c2c(ccc3ccccc32)o1 | 6.73
30 | O=C(Nc1ccc2cn[nH]c2c1)c1ccc(S(=O)(=O)N2CCOCC2)cc1 | -14.4
31 | Cc1cccc(N(C(=O)c2snc(C(N)=O)c2N)C(C(=O)NCC2CCCO2)c2ccc3ncccc3c2)c1 (centres unmarked) | 4.63
32 | CCOC(=O)N1CCN(C(=O)Nc2ccc3nc(C)sc3c2)CC1 | 12.3
33 | Cc1ccc(C)c(NC(=O)CN(C)C(=O)c2sccc2C)c1 | 13.8
34 | O=C1CN(C(=O)COc2ccccc2)CCN1 | 14.2
35 | COc1cc2nc(=S)n3[nH]c(COc4ccccc4C)nc3c2cc1OC | 18
36 | COc1ccc(O)c(/C=N/n2c(-c3ccco3)csc2=Nc2cccnc2)c1 | 17.4
37 | O=C(CSc1nc(N2CCOCC2)nc(N2CCOCC2)n1)Nc1cccc(C(F)(F)F)c1 | 12.3
38 | COc1ccc(N2C(=O)c3ccccc3NC2c2ccc(NC(C)=O)cc2)c(OC)c1 (centres unmarked) | 7.67

Row | SMILES | hERG current change (%, negative = inhibition) at 1uM [%]
39 | COc1ccc(CNC2CCCc3ccccc32)cc1OC.O=C(O)C(=O)O (centres unmarked) | 2.67
40 | O=C(O)/C=C\C(=O)O.c1ccc(C(OCCN2CCN(c3ncccn3)CC2)c2ccccc2)cc1 | -4.59
41 | CCOC(=O)CSc1ncnc2c1nnn2-c1ccc(F)cc1 | -3.23
42 | S=c1[nH]nc(-c2ccco2)n1/N=C/c1ccc(Cl)cc1Cl | -1.27
43 | CC1(COS(N)(=O)=O)CCCCC1 | 10.7
44 | CCCN1CCN(CCCNC(=O)Cn2ncc3c4ccccc4n(C)c3c2=O)CC1 | -10.1
45 | O=C(CNCc1ccc(Cl)cc1)Nc1ccc(C(=O)N2CCCCCC2)cc1.O=C(O)C(=O)O | 4.84
46 | CCOc1ccccc1NC(=O)CSc1ccc2nnc(-c3cccnc3)n2n1 | -12.6
47 | COc1ccc2[nH]c(=O)c(C(c3nnnn3CC3CCCO3)N3CCCCC3)cc2c1 (centres unmarked) | 16.5
48 | CCOC(=O)c1c(C)[nH]c(C(=O)Nc2ccc(C)c(Cl)c2)c1C | 8.68
49 | CCc1nn(CC(=O)N2CCN(c3ccc(F)cc3)CC2)c(=O)c2cc3occc3n12 | 4.01
50 | Cc1ccc(S(=O)(=O)N2CCCC2CNC(=O)C(=O)Nc2ccccc2)cc1 (centres unmarked) | 5.36
51 | CCC(CO)NS(=O)(=O)c1cc(-c2nn(C)c(=O)c3ccccc23)ccc1C (centres unmarked) | 1.43
52 | COc1ccc(C2CC(=O)c3sc(NC(C)=O)nc3C2)cc1 (centres unmarked) | 9.59
53 | O=C(Nc1nc(-c2ccc(F)cc2)cs1)c1ccc(N2C(=O)CCC2=O)cc1 | 12.5
54 | O=C(O)c1ccccc1NC(=O)c1cc(-c2ccccc2)nc2ccccc12 | 13.9
55 | CC1CCCC(NC(=O)COC(=O)CCc2ccccc2)C1C (centres unmarked) | -1.67
56 | N#CC1=C(N)Oc2cc(O)ccc2C1c1ccc(Br)s1 (centres unmarked) | 19.7
